Out of some 71,000 compounds screened, about 1,800 (2.5%) were called active. This list was built around the results that the source calls inconclusive (neither active nor inactive); the mix of calls is not that of the screen. Calls follow the shape of the dose curve; as a rule, active = well fitted activation curve with a large enough effect in the signal ratio, with a control signal flat (not every such curve was filed as active); inconclusive = small, poorly fitted or top-dose-only effect, or effect the other way, or a change in a side signal; inactive = flat fitted curve, though single readings scatter; the % refers to the signal ratio. Where the call is inconclusive, the potency comes from a doubtful curve fit.
assay: Cell signaling CRE-BLA (Fsk stim); settings: CHO CRE-bla reporter (cAMP response element driving beta-lactamase), forskolin EC10, beta-lactamase ratio; activity change, negative = inhibition: at 38.2 µM (top of the series) unless noted; as to activity change, negative = inhibition: % of control where 0% means no effect
Outline: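 Using CellSensor CRE-bla CHO cells in Opti-MEM with 0.5% dialyzed FBS, compounds were titrated with EC10 NKH 477 for 3 h at 37 °C. CCF4 ratio (460/530 nm) gave %Activity; AC50 derived.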
Potency is read from the fitted curve at half-maximal effect; tags tell the direction and shape of the fitted curve.

SMILES	activity change, negative = inhibition	Potency
COC(=O)[C@@H]1C[C@@]1(C)[C@@H](NC(=O)OCc1ccccc1)c1ccccc1	inconclusive: 14%	–
CCn1nnnc1-c1ccc(OC)c(S(=O)(=O)N2CCCCC2)c1	inactive: -9.62%	–
COc1ccc(C2=NO[C@@H]3C(=O)N(C4CCCCC4)C(=O)[C@H]23)cc1OC	inconclusive: -4.16%	–
CCn1c(C)c(C(C)=O)c(N2CCC(C(N)=O)CC2)nc1=S	inactive: 3.97%	–
CCN(CC)CCCN1C(=O)c2oc3ccccc3c(=O)c2C1c1cccc(OC)c1OC (configuration not stated)	inactive: -3.81%	–
Cc1nc(SCC(=O)Nc2cc(C)on2)c2c3c(sc2n1)CCCC3	–	active: 2.51 µM
COc1cc2c(cc1OC)-c1c(OC)c(OC)cc3ccnc(c13)C2=O	–	inconclusive: 0.316 µM [rising, full curve]
COc1ccc2[nH]c3c(c2c1)CN(C)CC3	inconclusive: -14.1%	–
CCOC(=O)c1cc2sccc2n1CC(=O)N1CCN(C(=O)c2ccco2)CC1	–	inconclusive: 0.126 µM [falling, single point]
CCOC(=O)c1cn(CC)c2ccc(Br)cc2c1=O	inconclusive: 26.7%	–
Cc1ccc(-n2ncc(C(=O)O)c2C2CCN(C(=O)OC(C)(C)C)CC2)cc1	inactive: -3.36%	–
COc1cccc(C2CC(=O)N3CN(c4cccc(Cl)c4C)CSC3=C2C#N)c1OC (configuration not stated)	inconclusive: 26.9%	–
CC1CCCN(c2oc(-c3cccc4ccccc34)nc2C#N)C1 (configuration not stated)	–	inconclusive: 0.316 µM [rising, full curve, poor fit]
COc1ccc(N(CC(=O)Nc2cc(C(=O)O)ccc2C)S(=O)(=O)c2c(C)noc2C)cc1	inactive: -13.2%	–
COc1ccccc1-c1nc(N(C)C)c2ccccc2n1	–	inconclusive: 12.6 µM [rising, partial curve]
COc1cc(OC)cc(C(=O)N2CCN(Cc3cccc(F)c3)CC2)c1	inconclusive: 0.789%	–
CC(C)C(=O)Nc1ccc([N+](=O)[O-])c(C(F)(F)F)c1	inactive	–
O=C(Nc1ccc2c(c1)OCCO2)C1CCCN(S(=O)(=O)c2cccs2)C1 (configuration not stated)	inconclusive: -29.1%	–
COc1ccc(NC(=O)N2CCCC3(CCN(C(=O)c4ccncc4)CC3)C2)cc1	inactive: -6.95%	–
CCOC(=O)C1CCN(c2nc3cc(OC)ccc3cc2C#N)CC1	inconclusive: 26.1%	–
Cc1cccc(C(=O)Nc2ncc(CN3CCOCC3)s2)c1	inconclusive: 20.5%	–

SMILES	activity change, negative = inhibition	Potency
O=C(O)/C(=C\c1ccncc1)c1cccc2ccccc12	inactive: -2.97% [at 7.6 µM]	–
Cc1ccc(CCN2CC(C(=O)NCCCN3CCOCC3)CC2=O)cc1 (configuration not stated)	inconclusive: 12.9%	–
CCc1ccc2[nH]c(=O)c(CN(CCN(C)C)C(=O)Nc3ccccc3OC)cc2c1	inactive: 1.23%	–
CCN(C(=O)c1cccc(F)c1)c1ccccc1C	inactive: 8.23%	–
CCOc1ccc(C(=O)Nc2c3c(nn2C(C)(C)C)CSC3)cc1OCC	–	inconclusive: 10 µM [rising, partial curve]
CCc1ccccc1N(CC)C(=O)CCc1nc(-c2ccc(C)cc2)no1	inconclusive: -8.52%	–
Cc1ccc(C(=O)C2CCN(CC(=O)NC3CCCCC3)CC2)cc1	inactive: -8.23%	–
CCOc1ccc(NC(=O)CN2CCN(CC(=O)Nc3cc(OC)cc(OC)c3)CC2)cc1	inconclusive: -6.87%	–
COc1ccc(CC(NC(C)=O)C(=O)NC2CCN(c3c4c(nc5ncnn35)CCC4)CC2)cc1 (configuration not stated)	inconclusive: -1.6%	–
O=C1CC(c2ccc(Cl)cc2)n2nc(N3C(=O)CCC3=O)nc2N1 (configuration not stated)	inactive: -1.23%	–
Clc1ccc(-n2nnnc2Sc2ncnc3sccc23)cc1	inconclusive: 11.6%	–
COc1ccc2c(c1)c1nnc(SCC(=O)N3C(C)CCCC3C)nc1n2C (configuration not stated)	–	active: 0.794 µM
COc1cccc(Cn2c(=O)c(-c3ccc(Cl)cc3)nc3cnc(N4CCNCC4)nc32)c1	–	inconclusive: 0.398 µM [rising, full curve]
CNC(=O)C1C2C=CC3(O2)C1C(=O)N(CCOC)C3C(=O)NCc1ccc(OC)cc1 (configuration not stated)	inactive: 2.54%	–
c1ccn2c(SCc3cn4ccsc4n3)nnc2c1	–	inconclusive: 0.158 µM [falling, full curve, poor fit]
C=CCn1c(COc2cccc3ccc(C)nc23)nnc1SCC(N)=O	inactive: -0.914%	–
COc1ccc2c(C)c(C(=O)NCC(C)O)oc2c1OC (configuration not stated)	–	inconclusive: 10 µM [rising, partial curve]
C[C@@H]1c2cccc(O)c2C(O)=C2C(=O)[C@@]3(O)C(O)=C(C(N)=O)C(=O)[C@@H](N(C)C)[C@@H]3[C@@H](O)[C@@H]21	inactive	–
O=c1cc(N=Nc2ccc(O)cc2)[nH]c(=O)[nH]1	inactive: -6.41% [at 7.6 µM]	–
CC(=O)c1c(C)nc2cc(Cl)ccc2c1N	–	active: 10 µM
COc1ccc(-n2nnnc2S(=O)(=O)CC(=O)N2CCCCC2)cc1	inconclusive: -26.5%	–

SMILES	activity change, negative = inhibition	Potency
CS(=O)(=O)N(CC(=O)NCc1ccc2c(c1)OCO2)Cc1ccccc1	inactive: -4.86%	–
CCOC(=O)CSc1nnc(CNC(=O)c2cccs2)n1-c1cccc(C)c1	inconclusive: 9.84%	–
C=CCn1c(=O)c2ccccc2n2c(SCc3nc(N)nc(Nc4ccccc4C)n3)nnc12	–	active: 7.94 µM
CCOC(=O)c1sc2nc(N3CCOCC3)c3c(c2c1N)CCC3	–	active: 10 µM
Cn1c(-c2ccc(F)cc2)cnc1NCc1ccccc1	inactive: -9.05%	–
CC(C)c1ccc(CNc2ccc(N3CCOCC3)cc2)cc1	inactive: 5.5%	–
COc1cc(C(C)=O)ccc1OCC(O)CNCC1(N2CCCCC2)CCCCC1 (configuration not stated)	–	inconclusive: 3.98 µM [falling, single point]
CC(=O)Nc1ccc(S(=O)(=O)NCCc2cc3c(C)ccc(C)c3[nH]c2=O)cc1	–	inconclusive: 15.8 µM [rising, single point]
NCCCCCCCCCCNS(=O)(=O)c1cccc2c(Cl)cccc12	inactive: -26%	–
COc1ccc(NC(=O)c2cc(-c3ccc(OC)c(OC)c3)on2)cc1OC	inconclusive: 8.48%	–
COc1ccc(NC(=O)CN(C)S(=O)(=O)c2ccc3c(c2)OCCO3)c2ncccc12	–	inconclusive: 3.16 µM [rising, partial curve]
O=C(CCn1cnc2ccccc2c1=O)Nc1ccc(S(=O)(=O)N2CCCC2)cc1	inactive: 12.2%	–
COc1ccccc1N1CCN(C(=O)N2CCOCC2)CC1	inconclusive: -4.22% [at 7.6 µM]	–
Nc1cccc(-n2nncc2-c2ccc(Cl)cc2)c1	–	inconclusive: 15.8 µM [rising, single point]
Cc1ccc(S(=O)(=O)NCCN=C(CN2CCCC2)NS(=O)(=O)c2ccc(C)cc2)cc1	–	inconclusive: 20 µM [falling, partial curve, poor fit]
COc1cccc(C(=O)Nc2c3c(nn2-c2cccc(C)c2C)CS(=O)(=O)C3)c1OC	–	active: 7.94 µM
CCOC(=O)COn1c(=O)c(-c2cccs2)[n+]([O-])c2ccccc21	inconclusive: 28.1%	–
O=C(N1CCOCC1)N(CCN1CCOCC1)Cc1cccc(Cl)c1	inconclusive: -6.57%	–
CNc1nc(-c2ccc3c(c2)OCO3)nc2ccccc12	–	inconclusive: 12.6 µM [rising, single point]
CC1(C)CCC2=C(O1)c1ccccc1C(=O)C2=O	inactive: -2.16%	–
COCCn1c(=S)[nH]c2cc(C(=O)N3CCN(c4ccccc4OC)CC3)ccc2c1=O	–	inconclusive: 12.6 µM [rising, single point]

SMILES	activity change, negative = inhibition	Potency
N[C@@H](Cc1cc(-c2ccc(Cl)cc2Cl)cc(CP(=O)(O)O)c1O)C(=O)O	inconclusive: 4.89%	–
COc1cccc(C(=O)Nc2c(F)c(F)c(F)c(F)c2F)c1	inactive: -1.25%	–
Cn1c(=O)c(C(=O)NCCO)c(O)c2ccccc21	–	inconclusive: 25.1 µM [rising, single point]
Cn1cccc1Cc1nnc(SCC(=O)N2CCc3ccccc32)n1-c1ccc(F)cc1	inconclusive: 7.48%	–
CCCOc1ccc2ccccc2c1/C=N/n1c(C)nnc1-n1nc(C)cc1C	–	inconclusive: 5.01 µM [rising, single point]
NCCC[C@@H](CC(=O)N[C@@H]1CCNC[C@H]1C(=O)N[C@H](CC(=O)N[C@@H](CCC(=O)O)CC(=O)O)Cc1c[nH]c2ccccc12)NC(=O)C[C@H](Cc1c[nH]c2ccccc12)NC(=O)[C@@H]1CNCC[C@H]1N	inconclusive: -21.9%	–
Cc1c(F)cccc1NS(=O)(=O)c1ccccc1C#N	–	inconclusive: 0.0501 µM [rising, full curve]
CC(C)(C)NC(=O)C(c1ccco1)N(C(=O)c1csnn1)c1ccccc1 (configuration not stated)	inactive: 0.931%	–
COc1cccc(Cn2c(=O)c(-c3cccc(C#N)c3)nc3cnc(N4CCOCC4)nc32)c1	–	active: 0.501 µM
C/C(NC1CCCCC1)=C(/C#N)C(=O)NCCN1CCOCC1	inconclusive: -13.6%	–
O=C(Cc1ccc(-n2cccc2)cc1)NCc1cccs1	–	inconclusive: 12.6 µM [rising, partial curve]
Cn1cccc1C(=O)N1CCC[C@@]2(CCN(c3cccc(-c4ccccc4)c3)C2)C1	inactive: -5.32%	–
Cn1cccc1C(=O)N1CCC2(CC1)CN(C(=O)Nc1cccc(C#N)c1)C2	inactive: -7.32%	–
O=C(COc1ccccc1O)Nc1ccc(Cl)cc1	inconclusive: 19.2%	–
CCc1ccccc1NC(=O)N[C@@H](C)C(=O)OC	inconclusive: 15.4%	–
COCCNS(=O)(=O)c1ccc2c(c1)oc(=O)c1cc(S(=O)(=O)NCCOC)ccc12	inconclusive: 16.5%	–
CC1CCCCN1CCn1c(=S)[nH]c2ncccc2c1=O (configuration not stated)	–	inconclusive: 25.1 µM [rising, single point]
COc1cc(CO)cc(Br)c1OCC(=O)O	inactive: -6.46%	–
COCCn1nnnc1C(C(C)C)N(Cc1cccnc1)Cc1cc2cc(OC)ccc2[nH]c1=O (configuration not stated)	inconclusive: 22.1%	–
